Laboratory results: PubChem BioAssay (Tox21)
Inconclusive results, whose numbers are uncertain, are shown with a selection of clear calls. For part of these data: Where the call is inconclusive, the potency comes from a doubtful curve fit. Calls of active or inactive are those of the source. Unless noted, calls follow the shape of the dose curve; as a rule, active = well fitted curve in the direction sought with a large enough effect in the repeat runs; inconclusive = weak or mixed curves; inactive = no such curve, though single readings can be large; an effect the other way counts as inactive or inconclusive.

Assays:
[1] = A CellTox Green Cytotoxicity Assay to monitor cytotoxicity in HepG2 cells - 32 hour (AID 1224883); also: nearly all actives have a fitted effect of over 50% in size; also: potency is read from the fitted curve at half-maximal effect
Summary of the method: (§1)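 HepG2 cells, 600/well, preincubated 5 h with CellTox Green dye, then exposed to Tox21 compounds in DMSO at 37 C for up to 40 h. Dead-cell DNA fluorescence read at the indicated time point.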

[2] = qHTS RealTime-Glo MT Cell Viability Assay in HEK293 cells - 24 hour (AID 1224886); also: nearly all actives have a fitted effect of over 50% in size; also: potency is read from the fitted curve at half-maximal effect
Summary of the method: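 Tox21 10K qHTS, HEK293, 600 cells/well, RealTime-Glo reagent co-dispensed with cells; 5 h preincubation, compound by pintool, 37 C, luminescence at 0–40 h.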

[3] = qHTS RealTime-Glo MT Cell Viability Assay in HepG2 cells - 0 hour (AID 1224889); also: potency is read from the fitted curve at half-maximal effect; nearly all actives have a fitted effect of over 50% in size
Summary of the method: (§2)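 Cells + NanoLuc/prosubstrate dispensed (600 cells/well) → 5 h at 37 C/5% CO2 → compounds in DMSO transferred → 40 h incubation at 37 C, luminescence read at 0, 8, 16, 24, 32, 40 h.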

[4] = A CellTox Green Cytotoxicity Assay to monitor cytotoxicity in HEK293 cells - 8 hour (AID 1224884); also: nearly all actives have a fitted effect of over 35% in size; also: potency is read from the fitted curve at half-maximal effect
Summary of the method: (§3)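 HEK293 cells, 600/well, were preincubated 5 hours and then exposed to compounds at 37 C for up to 40 hours. A cell-impermeant cyanine dye staining dead-cell DNA was read by fluorescence at 0, 8, 16, 24, 32 and 40 h time points.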

[5] = A CellTox Green Cytotoxicity Assay to monitor cytotoxicity in HEK293 cells - 16 hour (AID 1224888); also: potency is read from the fitted curve at half-maximal effect; nearly all actives have a fitted effect of over 35% in size
Summary of the method: as §3

[6] = qHTS RealTime-Glo MT Cell Viability Assay in HEK293 cells - 8 hour (AID 1224887); also: potency is read from the fitted curve at half-maximal effect; nearly all actives have a fitted effect of over 50% in size
Summary of the method: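 600 cells/well were plated with the nonlytic NanoLuc/prosubstrate reagent, pre-incubated 5 h, then given 23 nL of compound in DMSO. Incubation at 37 C for 40 h, with luminescence from viable-cell-reduced substrate read repeatedly from 0 h.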

[7] = qHTS assay to identify small molecule antagonists of the androgen receptor (AR) signaling pathway using the MDA cell line in the presence of 0.5 nM R1881 - cell viability counter screen (AID 1259242); also: nearly all actives have a fitted effect of over 45% in size; also: potency is read from the fitted curve at half-maximal effect
Summary of the method: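 MDA-kb2 cells (MMTV-luciferase, AR/GR responsive) were treated with compounds plus 0.5 nM R1881 (final) for 16 hr at 37C, 0% CO2. Viability was then read in the same wells as live-cell protease fluorescence (CellTiter-Fluor, 30 min).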

[8] = qHTS RealTime-Glo MT Cell Viability Assay in HepG2 cells - 16 hour (AID 1224885)
Summary of the method: as §2

[9] = A CellTox Green Cytotoxicity Assay to monitor cytotoxicity in HepG2 cells - 8 hour (AID 1224890); also: potency is read from the fitted curve at half-maximal effect; nearly all actives have a fitted effect of over 45% in size
Summary of the method: as §1

[10] = qHTS assay to identify small molecule agonists of the sonic hedgehog signaling (Shh) pathway - cell viability counter screen (AID 1259366)
Summary of the method: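 Cytotoxicity counter screen run in the same wells as the Shh reporter assay. NIH/3T3 cells carrying a Gli1 response element–driven luciferase were treated with DMSO-dissolved compounds for 24hr, and live-cell protease activity was measured with CellTiter-Fluor.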

[11] = qHTS assay to identify small molecule antagonists of the sonic hedgehog signaling (Shh) pathway - cell viability counter screen (AID 1259367); also: potency is read from the fitted curve at half-maximal effect; nearly all actives have a fitted effect of over 55% in size
Summary of the method: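 After a 4 hr settling period, 3T3 Gli1-Luc cells were treated with DMSO-dissolved chemicals and conditioned medium, kept 24 hr at 37C in 5% CO2, and assayed for viability by CellTiter-Fluor fluorescence following 1 hr reagent incubation.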

[12] = qHTS assay to identify small molecule HDAC inhibitors (AID 1259364); also: nearly all actives have a fitted effect of over 45% in size; also: potency is read from the fitted curve at half-maximal effect
Summary of the method: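 Wild-type HCT-116 cells, plated overnight at 37 C, exposed to compounds 2 hr at 37 C; luminogenic HDAC-Glo substrate then added 30 min at room temperature. Luminescence reports relative endogenous class I/II HDAC activity.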

[13] = qHTS assay to identify small molecule phospholipidosis (PLD) inducers (AID 1259344; active = well fitted curve in the direction sought with a large enough effect; inconclusive = small, poorly fitted or top-dose-only effect, or another doubt; inactive = no such curve, though single readings can be large; an effect the other way counts as inactive or inconclusive; also: potency is read from the fitted curve at half-maximal effect); conditions: HepG2 phospholipidosis, LipidTOX Red imaging, 24 h; series mostly up to 38.3 µM
Summary of the method: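 HepG2 cells grown on collagen I take up LipidTOX Red while exposed to compound for 24 h; after fixation they are imaged at 20x and pit metrics are extracted.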

[14] = target: Estrogen receptor (Homo sapiens) (UniProt P03372); assay: qHTS assay to identify small molecule antagonists of the estrogen receptor alpha (ER-alpha) signaling pathway using the BG1 cell line in the presence of 0.1 nM 17-beta-estradiol (AID 1259244); also: nearly all actives have a fitted effect of over 50% in size
Summary of the method: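 VM7Luc4E2 cells (endogenous full-length ER-alpha, 4×ERE-luciferase), kept 5 days in phenol red-free, charcoal-stripped FBS medium; 4,000 cells/well. Compounds added with 0.1 nM (final) 17beta-estradiol, 22 hr at 37C; luminescence read with ONE-Glo after 30 min.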
Tags tell the direction and shape of the fitted curve.

Sequence of UniProt P03372 (P03372 whole entry, looked up): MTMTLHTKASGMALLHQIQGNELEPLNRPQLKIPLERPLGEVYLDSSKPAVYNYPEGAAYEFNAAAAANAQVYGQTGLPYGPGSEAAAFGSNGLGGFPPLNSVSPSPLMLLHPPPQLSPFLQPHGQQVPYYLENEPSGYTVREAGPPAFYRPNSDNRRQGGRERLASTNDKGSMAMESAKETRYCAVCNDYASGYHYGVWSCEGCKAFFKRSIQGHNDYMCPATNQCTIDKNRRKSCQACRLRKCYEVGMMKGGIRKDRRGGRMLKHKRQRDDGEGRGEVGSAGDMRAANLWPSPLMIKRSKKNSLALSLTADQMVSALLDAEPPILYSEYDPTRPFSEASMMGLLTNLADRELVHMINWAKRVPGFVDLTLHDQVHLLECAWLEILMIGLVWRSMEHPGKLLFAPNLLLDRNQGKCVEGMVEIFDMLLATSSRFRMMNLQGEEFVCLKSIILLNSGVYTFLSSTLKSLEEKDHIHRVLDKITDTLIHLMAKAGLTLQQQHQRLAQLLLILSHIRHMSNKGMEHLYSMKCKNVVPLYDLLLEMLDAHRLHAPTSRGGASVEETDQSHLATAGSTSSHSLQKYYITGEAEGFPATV

Structure (SMILES): CC(=O)c1sc(C)nc1C
- Potency [1]: inactive
- Potency [2]: inactive
- Potency [3]: inconclusive: 21.9 µM [rising, single point]

Structure (SMILES): NCc1ccco1
- Potency [1]: inactive
- Potency [4]: inconclusive: 54.9 µM [activator, single point]
- Potency [5]: inconclusive: 61.6 µM [activator, single point]

Structure (SMILES): C=CC[N+]1([C@H]2C[C@H]3[C@@H]4CC[C@H]5C[C@H](OC(C)=O)[C@@H](N6CCCCC6)C[C@]5(C)[C@H]4CC[C@]3(C)[C@H]2OC(=O)CC)CCCCC1
- Potency [1]: inactive
- Potency [4]: inactive

Structure (SMILES): C#C[C@]1(O)CC[C@H]2[C@@H]3CCC4=CC(=O)CC[C@@H]4[C@H]3CC[C@@]21C
- Potency [1]: inconclusive: 54.9 µM [activator, single point]
- Potency [2]: inconclusive: 49 µM [cytotoxic, single point]
- Potency [6]: inconclusive: 54.9 µM [cytotoxic, single point]
- Potency [3]: inconclusive: 21.9 µM [cytotoxic, partial curve]
- Potency [7]: inactive

Structure (SMILES): CCN(CC)CCOC(=O)C(c1ccccc1)C1CCCCC1 (stereo unspecified)
- Potency [1]: active: 23.9 µM
- Potency [8]: inconclusive: 26.8 µM [cytotoxic, partial curve, poor fit]
- Potency [2]: inconclusive: 26.8 µM [cytotoxic, single point]
- Potency [6]: inconclusive: 42.5 µM [cytotoxic, single point]
- Potency [9]: inconclusive: 23.9 µM [activator, single point]
- Potency [10]: inconclusive: 23.7 µM [cytotoxic, partial curve]
- Potency [11]: inconclusive: 13.3 µM [cytotoxic, full curve]

Structure (SMILES): C[N+](C)(CCOc1ccccc1)Cc1cccs1
- Potency [1]: inconclusive: 26.8 µM [activator, partial curve, poor fit]

Structure (SMILES): COC(=O)c1cccnc1
- Potency [1]: inactive

Structure (SMILES): CCCCCCOc1ccc(N)cc1
- Potency [1]: inconclusive: 34.7 µM [activator, partial curve]
- Potency [2]: inconclusive: 43.6 µM [cytotoxic, partial curve]
- Potency [6]: active: 19.5 µM
- Potency [12]: inconclusive: 54.5 µM [inhibitor]

Structure (SMILES): CCc1c(C)[nH]c2c1C(=O)C(CN1CCOCC1)CC2 (stereo unspecified)
- Potency [1]: inactive
- Potency [2]: inactive

Structure (SMILES): CCC(C)(C)C1CCC(O)CC1 (stereo unspecified)
- Potency [1]: inconclusive: 49 µM [activator, single point]

Structure (SMILES): O=C(NC1CCN(CCc2c[nH]c3ccccc23)CC1)c1ccccc1
- Potency [1]: inactive
- Potency [2]: active: 8.49 µM
- Potency [6]: active: 9.52 µM
- Potency [13]: inconclusive: 14.1 µM [activator, partial curve, poor fit]
- Potency [12]: inconclusive: 33.5 µM [inhibitor, single point]

Structure (SMILES): CCn1nc(Cc2ccccc2)cc1C1CCN(C[C@H]2C[C@H](N(C)[C@@H](C(=O)O)C(C)C)C[C@@H]2c2cccc(F)c2)CC1
- Potency [1]: inconclusive: 54.9 µM [activator, single point]
- Potency [4]: inactive
- Potency [2]: inconclusive: 43.6 µM [cytotoxic, partial curve]
- Potency [6]: inconclusive: 38.9 µM [cytotoxic, partial curve]
- Potency [14]: inactive
- Potency [10]: inconclusive: 54.5 µM [cytotoxic, partial curve]
- Potency [11]: inconclusive: 38.6 µM [cytotoxic, partial curve]

Structure (SMILES): CCCCCCCCCCCCOCCOS(=O)(=O)O
- Potency [1]: active: 54.9 µM
- Potency [2]: inactive
- Potency [5]: active: 21.9 µM

Structure (SMILES): CC(=O)N1C[C@H](O)C[C@H]1C(=O)O
- Potency [1]: inactive

Structure (SMILES): Cn1c(NCCN(CCO)CCCc2ccc([N+](=O)[O-])cc2)cc(=O)n(C)c1=O
- Potency [1]: inactive

Structure (SMILES): O=C(OCCCCCOC(=O)c1ccccc1)c1ccccc1
- Potency [1]: inactive
- Potency [2]: inconclusive: 43.6 µM [cytotoxic, partial curve, poor fit]
- Potency [6]: inconclusive: 38.9 µM [cytotoxic, partial curve, poor fit]

Structure (SMILES): COc1ccc(OC)c(N=Nc2c(O)ccc3ccccc23)c1
- Potency [1]: inconclusive: 61.6 µM [activator, single point]
- Potency [8]: inconclusive: 49 µM [cytotoxic, partial curve, poor fit]
- Potency [2]: inconclusive: 34.7 µM [cytotoxic, partial curve]
- Potency [6]: inconclusive: 34.7 µM [cytotoxic, partial curve]
- Potency [7]: active: 24.3 µM
- Potency [12]: active: 27.3 µM
- Potency [10]: active: 13.7 µM
- Potency [11]: active: 13.7 µM

Structure (SMILES): CCOCCOCCOCCO
- Potency [1]: inactive
- Potency [4]: inconclusive: 19.5 µM [activator, partial curve]
- Potency [5]: inconclusive: 21.9 µM [activator, single point]

Structure (SMILES): c1ccc(C(O[C@H]2CCCN(CCc3ccc4c(c3)OCO4)C2)c2ccccc2)cc1
- Potency [1]: inconclusive: 26.8 µM [activator, single point]
- Potency [4]: inactive
- Potency [2]: inconclusive: 15.1 µM [cytotoxic, partial curve, poor fit]
- Potency [9]: inconclusive: 26.8 µM [activator, single point]
- Potency [13]: inconclusive: 10 µM [activator, partial curve, poor fit]
- Potency [12]: inactive
